Experimental findings from PubChem BioAssay AID1963576 (National Center for Advancing Translational Sciences (NCATS), 2024) are described below.

Out of some 46,000 compounds screened, about 60 (0.1%) were called active. Inconclusive results (about 3%) are left out. The call rests on the fitted dose curve; in most records, active means well fitted inhibition curve with a large enough effect; inconclusive means small, poorly fitted or top-dose-only effect; inactive means no such curve, though single readings can be large or run the other way. The list shows a part of the results.

This assay can be described thus: Primary qHTS assay for Inhibitors of ovarian cancer metastasis using an organotypic tumor microenvironment (TME) model. Further: nearly all actives have a fitted effect of over 65% in size.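 On activity change, negative = inhibition: plate controls were DMSO wells for no effect and tomatine positive control wells for full effect.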 The note with it: SKOV3ip1-GFP adhesion/invasion on 3D omental model, fluorescence; series mostly up to 45.8 µM; activity change, negative = inhibition: at the top concentration. Summed up:
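qHTS, 4-pt dose (0.36-46 umol/L); SKOV3ip1-GFP, 1,200 cells/well, no FBS; primary omental fibroblast/mesothelial co-culture 48 h pre-grown; 2 h RT + 16 h 37 C; PBS wash, 4% PFA; GFP count 488/509 nm.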
On the technique in general: Quantitative high-throughput screening tests each substance at several concentrations.
In the case of `Cc1oc2ncn(CC(C)C)c(=O)c2c1C(=O)NC(C)c1ccccc1` (stereo not drawn), the “activity change, negative = inhibition” value is inactive: -28.8%.

Regarding `CCN(C(=O)Cn1cnc2onc(-c3ccc(F)cc3)c2c1=O)c1ccc(OC)cc1`, the call was inactive.

In the case of `O=C(Cn1c(=O)n(Cc2ccc3c(c2)OCO3)c(=O)c2oc3ccccc3c21)Nc1ccccc1F`, the “activity change, negative = inhibition” value was inactive: 3.32%.

For the molecule `COCCn1c(C)cc(O)c(C(c2ccccc2)N2CCN(c3ccccc3)CC2)c1=O` (stereo not drawn), the “activity change, negative = inhibition” value was inactive: 6.86%.

With `COc1ccc(-c2nnc(SCC(=O)NC3CCCCC3)nc2-c2ccc(OC)cc2)cc1`, the “activity change, negative = inhibition” value was inactive: -13%.

For `COc1cc(OC)c(NC(=O)N2CCCn3nc(C)cc32)cc1Cl`, the “activity change, negative = inhibition” value was inactive: 6.21%.

In the case of `COc1ccc(C(=O)Nc2ccc3c(c2)CCCN3C(=O)c2cccs2)c(OC)c1`, the “activity change, negative = inhibition” value is inactive: -2.06%.

As for `CCOc1ccc(Nc2nnc(-n3nc(C)cc3C)c3ccccc23)cc1`, the result was inactive.

Take `Cc1cccc(-n2ccnc2SCC(=O)Nc2cccc3ccccc23)c1C`: the “activity change, negative = inhibition” value is inactive: -9.2%.

Consider `COc1ccc(CN2CCc3c(c(=O)n4ncc(C(=O)N5CCN(c6ccc(F)cc6)CC5)c4n3C)C2)cc1`, for which the molecule was classed as inactive.

Take `COc1ccccc1CNC(=O)c1cccn1-c1nnc(N2CCCCC2)s1`: the “activity change, negative = inhibition” value was inactive: 6.62%.

Regarding `COC(=O)c1c(NC(=O)Cc2coc3cc(C)ccc23)sc2c1CCCC2`, the “activity change, negative = inhibition” value was inactive: 0.0792%.

Take `COc1ccc(CNC(=O)c2cc(-c3ccc(OC)cc3)nc3n[nH]c(-c4cccc([N+](=O)[O-])c4)c23)cc1`: the “activity change, negative = inhibition” value was inactive: -7.79%.

With `CC(=O)N1CCc2c(sc3c2c(=O)n(-c2ccc(C)cc2)c(=O)n3Cc2c(F)cccc2Cl)C1`, the “activity change, negative = inhibition” value is inactive: 1.83%.

Turning to `Cc1ccc(CNC(=O)C2CCN(S(=O)(=O)c3ccc(F)cc3)CC2)cc1`, the “activity change, negative = inhibition” value was inactive: 8.41%.

As for `COc1cc(CNC(=O)C2CCCCN2S(=O)(=O)c2ccc(F)cc2)cc(OC)c1OC` (stereo not drawn), the “activity change, negative = inhibition” value is inactive: 2.77%.

As to `CCOC(=O)c1c(S(=O)(=O)N2CCCC(C(=O)Nc3ccccn3)C2)c(C)n(C)c1C` (stereo not drawn), the “activity change, negative = inhibition” value was inactive: 5.12%.

With `CCc1cccc(NC(=O)CN2Cc3ccccc3C2=O)c1`, the “activity change, negative = inhibition” value is inactive: -11.6%.

Consider `COc1ccc(-c2cc(C)no2)cc1S(=O)(=O)NCc1cccs1`, for which the molecule was classed as inactive.

As for `CCOc1ccc(C2CC(=O)Nc3cc4c(cc32)OCO4)cc1OC` (stereo not drawn), the “activity change, negative = inhibition” value was inactive: 17.9%.

For `CCc1ccc(-n2c(=O)c3sc4ccccc4c3n(CC(=O)N3CCCC3)c2=O)cc1`, the “activity change, negative = inhibition” value was inactive: -17.2%.

For `O=C(CSc1nc2ccsc2c(=O)n1Cc1ccccc1Cl)NCc1ccc(F)cc1`, the “activity change, negative = inhibition” value is inactive: 7.77%.

As for `Cc1c(Cl)cccc1NC(=O)Cn1cc(C(=O)c2cccs2)c2ccccc21`, the “activity change, negative = inhibition” value was inactive: 5.86%.

For the molecule `Cc1nc(-c2cccc(NC(=O)Nc3ccccc3C(F)(F)F)c2)no1`, the molecule was classed as inactive.

Take `Cc1ccc(C)c(Cn2c(CCCNC(=O)C3CCCCC3)nc3ccccc32)c1`: the “activity change, negative = inhibition” value is inactive: 6%.

`Cc1ccc2cccc(NC(=O)COc3ccccc3Cl)c2n1`: the outcome was inactive.

`Cc1ccc(-c2nc(CS(=O)CC(=O)N3CCN(c4cccc(Cl)c4)CC3)c(C)o2)cc1` (stereo not drawn): the molecule was called inactive.

As for `CCCOc1cccc(C2c3c(oc4ccccc4c3=O)C(=O)N2c2nncs2)c1` (stereo not drawn), the molecule was called inactive.

`O=C(Nc1cccc(O)c1)c1noc2c1CCc1ccccc1-2`: the “activity change, negative = inhibition” value was inactive: -14.7%.

With `COc1cccc(C(=O)c2cn(CC(=O)NCc3ccccc3Cl)c3nc(C)ccc3c2=O)c1`, the molecule was called inactive.

For `O=C(Nc1c2c(nn1-c1ccc(Cl)cc1)CS(=O)(=O)C2)c1cccc(F)c1`, the “activity change, negative = inhibition” value is inactive: 14.2%.

For the molecule `CC(C)CN(CC(C)C)S(=O)(=O)c1ccc(C(=O)Nc2sc3c(c2C(N)=O)CC(C)(C)NC3(C)C)cc1`, the “activity change, negative = inhibition” value is inactive: -2.51%.

For the molecule `CC(=O)Nc1ccc([C@H](C)C(=O)Nc2ncc(C(C)C)s2)cc1`, the “activity change, negative = inhibition” value is inactive: -0.837%.

Take `CCc1ccc(NC(=O)CCCc2nnc3n(CC(C)C)c(=O)c4sccc4n23)cc1`: the result was inactive.

As for `COc1cc2ncn(-c3cc(OCc4ccccc4S(C)(=O)=O)c(C#N)s3)c2cc1OC`, the “activity change, negative = inhibition” value was inactive: -0.105%.

Consider `Cc1cccc(OCc2ccc(-c3nc(C#N)c(NCc4cccnc4)o3)o2)c1`, for which the “activity change, negative = inhibition” value was inactive: 0.657%.

Consider `CCC(=O)N1CCc2cc(OC)c(OC)cc2C1COc1ccccc1OC` (stereo not drawn), for which the “activity change, negative = inhibition” value is inactive: -6.81%.

Turning to `O=C(CSc1nc(-c2cccc(F)c2)[nH]c1-c1ccccc1)Nc1ccc2c(c1)OCCO2`, the “activity change, negative = inhibition” value is inactive: -6.61%.

On to `Cc1nnc(NC(=O)CSc2nccn2Cc2ccc(F)cc2)s1`, for which the molecule was called inactive.

As to `CCOc1ccccc1NC(=O)c1c(NCc2cccs2)sc2c1CCC(C)C2` (stereo not drawn), the “activity change, negative = inhibition” value is inactive: 5.07%.

For `CC(C)c1nn2c(=O)cc(COC(=O)c3ccccc3NC(=O)COc3ccccc3)nc2s1`, the “activity change, negative = inhibition” value is inactive: 15.8%.

Take `COC(=O)c1ccc(C2c3c(-c4ccccc4O)n[nH]c3C(=O)N2Cc2ccncc2)cc1` (stereo not drawn): the “activity change, negative = inhibition” value is inactive: 0.634%.

Regarding `COc1ccc(-c2nc(CNS(=O)(=O)c3ccc(Br)cc3)cs2)cc1`, the “activity change, negative = inhibition” value was inactive: -20.1%.

For the molecule `Cc1cc(C)nc(-n2nc(C)c3c2N(C)C(=O)CC3c2ccc(Cl)cc2)n1` (stereo not drawn), the “activity change, negative = inhibition” value is inactive: 1.72%.

As to `Cc1c(C(=O)Nc2cccc(Cl)c2)oc2ccc(S(=O)(=O)N3CCCCCC3)cc12`, the “activity change, negative = inhibition” value is inactive: 9.97%.

For `Cc1ccc(CN2COc3ccc4c(-c5ccccc5)cc(=O)oc4c3C2)cc1`, the “activity change, negative = inhibition” value was inactive: -15%.

`NC(=O)c1ncn([C@@H]2O[C@H](CO)[C@@H](O)[C@@H]2O)c1O`: the “activity change, negative = inhibition” value was inactive: 0.746%.

Turning to `COc1cc(NC(=O)CSc2nc(-c3ccco3)cc(C(F)(F)F)n2)cc(OC)c1OC`, the “activity change, negative = inhibition” value is inactive: -12.9%.
